From the supplement of paper PMC9174493
Counter-ions that a name gives are not always drawn. The list shows a part of the results. Single values of this set are uncertain. Values with irradiation are relative to irradiated vehicle.

Legend:
[1] = system: A549-Dual; assay: NF-kB reporter (SEAP) activity, viability-corrected, relative to vehicle (fold change vs vehicle); higher = more activation of STING-IRF / NF-kB immune response reporter; details: 10 µM
[2] = system: A549-Dual; assay: ISRE reporter (Lucia luciferase) activity, viability-corrected, relative to vehicle (fold change vs vehicle); higher = more activation of STING-IRF / NF-kB immune response reporter; details: 10 µM
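For NF-kB reporter (SEAP) activity, viability-corrected, relative to vehicle in this document: viability correction based on the alamar blue assay, with concentrations leaving 10% survival or less dropped.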

Structure (SMILES) | NF-kB reporter ([1]; irradiation: 8 Gy/4 fr) | NF-kB reporter ([1]; irradiation: none) | ISRE reporter ([2]; irradiation: 8 Gy/4 fr) | ISRE reporter ([2]; irradiation: none)
CCC(C(C)O)n1ncn(-c2ccc(N3CCN(c4ccc(OCC5COC(Cn6cncn6)(c6ccc(F)cc6F)C5)cc4)CC3)cc2)c1=O (configuration not stated) [Posaconazole] | 0.819 | 1.23 | 0.783 | 2.48
CC(O)Cn1cnc2c1c(=O)n(C)c(=O)n2C (configuration not stated) [Proxyphylline] | 1.2 | 0.993 | 1.31 | 1.02
O=C1C2C3CCC(C3)C2C(=O)N1CC1CCCCC1CN1CCN(c2nsc3ccccc23)CC1 (configuration not stated) [lurasidone] | 0.714 | 0.81 | 0.803 | 0.731
CCCCCCCCCCCCCCCCOP(=O)([O-])OCC[N+](C)(C)C [Miltefosine] | 0.995 | 0.923 | 1.01 | 0.93
CC1CS(=O)(=O)CCN1/N=C/c1ccc([N+](=O)[O-])o1 (configuration not stated) [Nifurtimox] | 0.785 | 0.906 | 0.694 | 0.72
Cc1ccccc1C(=O)Nc1ccc(C(=O)N2CCCC(O)c3cc(Cl)ccc32)c(C)c1 (configuration not stated) [Tolvaptan] | 0.666 | 1.12 | 0.595 | 0.907
CCn1cc(C(=O)O)c(=O)c2cnc(N3CCNCC3)nc21 [Pipemidic acid] | 0.871 | 1.09 | 0.746 | 0.975
CC(c1cc2ccccc2s1)N(O)C(N)=O (configuration not stated) [Zileuton] | 0.868 | 1.14 | 1.06 | 1.01
CCOC(=O)CC(O)(CC(=O)OCC)C(=O)OCC [Triethyl citrate] | 1.03 | 0.976 | 0.95 | 0.67
CCCN1CC(C)C(O)C(C)(O)C(CC)OC(=O)C(C)C(OC2CC(C)(OC)C(O)C(C)O2)C(C)C(OC2OC(C)CC(N(C)C)C2O)C(C)(O)CC1C (configuration not stated) [Gamithromycin] | 0.481 | 0.594 | 0.73 | 0.829
CC(=O)N[C@@H](Cc1ccc(O)cc1)C(=O)O [N-Acetyl-L-tyrosine] | 1.17 | 0.97 | 1.01 | 0.658
CC(C)CCCC(C)CCCC(C)CCCCC(C)CCCC(C)CCCC(C)C (configuration not stated) [Squalane] | 0.886 | 0.993 | 0.849 | 0.787
N[C@@H](Cc1cc(I)c(Oc2cc(I)c(O)c(I)c2)c(I)c1)C(=O)O [L-Thyroxine] | 1.03 | 1.1 | 0.718 | 0.672
Nc1cccc2c1CN(C1CCC(=O)NC1=O)C2=O (configuration not stated) [Lenalidomide (CC-5013)] | 0.926 | 0.989 | 1.19 | 1.06
Nc1ccc(S(=O)(=O)NC(=O)c2ccccc2)cc1 [Sulfabenzamide] | 0.797 | 0.892 | 0.712 | 0.707
COc1ccc(CC2c3cc(OC)c(OC)cc3CC[N+]2(C)CCC(=O)OCCCCCOC(=O)CC[N+]2(C)CCc3cc(OC)c(OC)cc3C2Cc2ccc(OC)c(OC)c2)cc1OC.O=S(=O)([O-])c1ccccc1.O=S(=O)([O-])c1ccccc1 (configuration not stated) [Atracurium Besylate] | 0.629 | 0.726 | 0.536 | 0.631
Cc1ccccc1N1CCN(CCc2nnc3n2CCCC3)CC1.Cl [Dapiprazole Hydrochloride] | 0.995 | 1.38 | 0.681 | 0.719
COC(=O)Nc1nc2ccc(Sc3ccccc3)cc2[nH]1 [Fenbendazole] | 0.79 | 1.98 | 0.185 | 1.08
O=C(OCc1ccccc1)c1ccccc1 [Benzyl benzoate] | 0.881 | 0.921 | 0.763 | 0.736
CC(=O)O.CCC(C)C1NC(=O)C(Cc2ccc(O)cc2)NC(=O)C(N)CSSCC(C(=O)N2CCCC2C(=O)NC(CC(C)C)C(=O)NCC(N)=O)NC(=O)C(CC(N)=O)NC(=O)C(CCC(N)=O)NC1=O (configuration not stated) [Oxytocin (Syntocinon)] | 0.866 | 0.653 | 0.863 | 0.606
NCC(=O)NCC(=O)O [Glycylglycine] | 1.27 | 0.771 | 1.34 | 1.11
CC(C)(CO)C(O)C(=O)NCCC(=O)NCCSSCCNC(=O)CCNC(=O)C(O)C(C)(C)CO [D-Pantethine] | 0.738 | 0.619 | 0.719 | 0.662
O=C(O)c1ccc2ccccc2c1O.OCc1cc(C(O)CNCCCCCCOCCCCc2ccccc2)ccc1O (configuration not stated) [Salmeterol Xinafoate] | 0.57 | 0.72 | 0.665 | 0.715
O=C1c2c(O)cccc2Cc2cccc(O)c21 [Dithranol] | 0.828 | 0.481 | 0.737 | 0.588
CCOC(=O)C(C)(C)Oc1ccc(Cl)cc1 [Clofibrate] | 0.784 | 0.748 | 0.714 | 0.694
CC(CCC(=O)NCC(=O)O)C1CCC2C3C(O)CC4CC(O)CCC4(C)C3CC(O)C12C (configuration not stated) [Glycocholic acid] | 0.515 | 0.475 | 0.673 | 0.544
Cc1cn(C2CC(O)C(CO)O2)c(=O)[nH]c1=O (configuration not stated) [Telbivudine] | 0.764 | 0.894 | 0.722 | 0.712
CCCCC(C)(O)C/C=C/C1C(O)CC(=O)C1CCCCCCC(=O)OC (configuration not stated) [Misoprostol] | 0.786 | 0.577 | 0.773 | 0.498
